# In all, about 39,000 compounds went through this assay and about 220 (0.56%) showed activity. The list shows a part of the results.
# Test system: Escherichia coli K-12 BW25113
# Assay: relative growth (OD600 normalised to plate interquartile mean) (fraction); higher = less growth inhibition, active = 0.2 or less
# Conditions: 50 µM; LB; incubation time: overnight (16-24 h)
# 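Further: static incubation at 37 °C against the wild-type strain, values averaged over two biological replicates.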
row,SMILES,relative growth
1,C[C@@H]1CN([C@H](C)CO)C(=O)Cc2cc(NC(=O)Cc3cn(C)c4ccccc34)ccc2O[C@H]1CN(C)C(=O)Nc1cccc2ccccc12,inactive: 0.989
2,C=CCCCCCCCCCCCc1ccco1,inactive: 0.986
3,NCCN1CCOCC1,inactive: 0.971
4,C[C@@H]1CN([C@@H](C)CO)C(=O)c2cc(NC(=O)CCC(F)(F)F)ccc2O[C@@H]1CN(C)C(=O)Nc1cccc2ccccc12,inactive: 0.964
5,Cc1noc(C)c1NC(=O)N(C)C[C@@H]1Oc2ccc(NC(=O)NC(C)C)cc2C(=O)N([C@H](C)CO)C[C@@H]1C,inactive: 0.98
6,C[C@H]1CN([C@@H](C)CO)C(=O)Cc2cc(NC(=O)Cn3cnnn3)ccc2O[C@@H]1CN(C)S(=O)(=O)c1cn(C)cn1,inactive: 1.03
7,COC[C@H]1CN(C(=O)C2CC2)Cc2cnn(C)c21,inactive: 0.974
8,CCCNC(=O)N[C@H]1C=C[C@H](CC(=O)N2CCN(C)CC2)O[C@@H]1CO,inactive: 0.981
9,O=C(C[C@H]1C[C@@H]2c3cc(NC(=O)c4cccnc4)ccc3O[C@@H]2[C@H](CO)O1)NCc1cc(F)ccc1F,inactive: 0.97
10,C=CCN1C[C@@]23C=C[C@@H](O2)[C@@H](C(=O)O)C3C1=O (stereo partly specified),inactive: 1
11,CN(C)CCCCNC(=O)[C@@H]1C[C@@H]2C(=O)N[C@@H](CCCCN)C(=O)N2[C@@H]1c1ccc(O)cc1,inactive: 1.07
12,NCCn1ncccc1=O,inactive: 1.03
13,CC(C)NC(=O)N(C)C[C@H]1Oc2c(NS(=O)(=O)c3ccc(F)cc3)cccc2C(=O)N([C@@H](C)CO)C[C@H]1C,inactive: 1.02
14,CCCCCCCCCCCCN1CCCCCC1=O,inactive: 1
15,COc1ccc(S(=O)(=O)Nc2ccc3c(c2)C(=O)N([C@@H](C)CO)C[C@H](C)[C@@H](CN(C)C(=O)c2ccccc2)OCCCC[C@@H](C)O3)cc1,inactive: 1.01
16,C[C@H]1CN([C@@H](C)CO)C(=O)c2cccc(NS(C)(=O)=O)c2O[C@@H]1CN(C)C(=O)Nc1ccccc1,inactive: 1.01
17,O=C(C[C@@H]1C=C[C@@H](NS(=O)(=O)c2ccccc2)[C@@H](CO)O1)NCc1ccncn1,inactive: 0.987
18,C[C@H]1CN([C@@H](C)CO)C(=O)Cc2cc(NC(=O)C3CC3)ccc2O[C@@H]1CN(C)S(=O)(=O)c1ccc(Cl)cc1,inactive: 0.991
19,C[C@@H]1CCCCO[C@H](CN(C)Cc2ccc3c(c2)OCO3)[C@H](C)CN([C@@H](C)CO)C(=O)c2cc(NS(=O)(=O)c3ccc(F)cc3)ccc2O1,inactive: 1.01
20,Cc1noc(C)c1NC(=O)Nc1ccc2c(c1)C(=O)N([C@H](C)CO)C[C@H](C)[C@H](CN(C)Cc1ccc(Oc3ccccc3)cc1)O2,inactive: 1.02
21,O=C(CN1CCOCC1)N[C@@H]1CC[C@@H](CCNS(=O)(=O)c2ccccc2F)O[C@H]1CO,inactive: 1.01

row,SMILES,relative growth
1,C[C@@H]1CN([C@@H](C)CO)C(=O)c2cccc(NS(=O)(=O)c3cn(C)cn3)c2O[C@@H]1CN(C)C(=O)NC1CCCCC1,inactive: 0.986
2,C[C@@H]1CN([C@H](C)CO)C(=O)c2cc(NS(=O)(=O)c3ccc(Cl)cc3)ccc2O[C@H]1CN(C)Cc1ccc(Cl)c(Cl)c1,inactive: 0.976
3,C[C@@H]1CN([C@@H](C)CO)C(=O)c2cc(NS(=O)(=O)c3ccc(F)cc3)ccc2O[C@@H]1CN(C)S(=O)(=O)c1ccccc1,inactive: 1.02
4,C[C@@H]1CN([C@H](C)CO)C(=O)c2cc(NC(=O)CCCCCC(=O)Nc3ccccc3N)ccc2O[C@@H]1CN(C)C(=O)Nc1ccccc1,inactive: 1
5,C[C@@H]1CN([C@@H](C)CO)C(=O)c2cc(NS(=O)(=O)c3ccc(F)cc3)ccc2O[C@@H](C)CCCCO[C@@H]1CN(C)C(=O)Nc1ccc(F)cc1,inactive: 0.997
6,C[C@H](CO)N1C[C@H](C)[C@@H](CN(C)Cc2ccc(Cl)c(Cl)c2)Oc2ccc(NS(=O)(=O)c3cccs3)cc2C1=O,inactive: 0.998
7,COc1ccc(CN(C)C[C@H]2OCCCC[C@@H](C)Oc3ccc(NS(=O)(=O)c4ccc(Cl)cc4)cc3C(=O)N([C@H](C)CO)C[C@H]2C)cc1,inactive: 1.01
8,C[C@H]1CN([C@@H](C)CO)C(=O)c2cccc(NC(=O)c3cnccn3)c2O[C@H]1CN(C)S(=O)(=O)c1ccc(F)cc1,inactive: 1.01
9,C[C@@H]1CN([C@H](C)CO)C(=O)c2cc(NC(=O)Nc3ccccc3)ccc2O[C@@H](C)CCCCO[C@H]1CN(C)Cc1ccccc1,inactive: 1.02
10,O=C1C[C@@H]2C(=O)NCCN2C(NC(=O)c2ccccc2)=N1,inactive: 1.02
11,C[C@@H]1CN([C@@H](C)CO)C(=O)c2cc(NC(=O)Cc3cn(C)c4ccccc34)ccc2O[C@H]1CN(C)S(C)(=O)=O,inactive: 0.985
12,CN1CCN(C(=O)C[C@@H]2CC[C@H]3[C@@H](COC[C@@H](O)CN3CC3CCCC3)O2)CC1,inactive: 1
13,C[C@H]1CN([C@@H](C)CO)C(=O)c2cc(NS(=O)(=O)c3cccs3)ccc2O[C@H]1CN(C)CC1CC1,inactive: 0.987
14,Cc1ccc(S(=O)(=O)N(C)C[C@@H]2OCCCC[C@H](C)Oc3ccc(NC(=O)C4CCCCC4)cc3C(=O)N([C@@H](C)CO)C[C@@H]2C)cc1,inactive: 1.01
15,COc1ccc2c(c1)[C@@]1(CC(=O)N(Cc3ccccc3)C1=O)C(=O)N2CCCn1c(=O)n(C)c2ccccc21,inactive: 1.02
16,C[C@H](CO)N1C[C@H](C)[C@H](CN(C)C(=O)C2CCCCC2)Oc2cc(C#Cc3ccncc3)ccc2S1(=O)=O,inactive: 0.975
17,C[C@@H]1CN([C@H](C)CO)C(=O)c2cc(NC(=O)C3CC3)ccc2O[C@@H]1CN(C)Cc1ccc2c(c1)OCO2,inactive: 0.999
18,C[C@H](CO)N1C[C@H](C)[C@H](CN(C)S(=O)(=O)c2ccc(F)cc2)Oc2ccc(NC(=O)Cc3ccccc3)cc2CC1=O,inactive: 0.99
19,C[C@H]1CN([C@@H](C)CO)C(=O)c2cc(NC(=O)Nc3ccc(F)cc3)ccc2O[C@@H]1CN(C)C(=O)Nc1ccc(C(F)(F)F)cc1,inactive: 1.02
20,COCCCCC(=NOCCN)c1ccc(C(F)(F)F)cc1.O=C(O)C=CC(=O)O,inactive: 0.949
21,C[C@@H]1CCCCO[C@H](CN(C)C(=O)Nc2ccccc2)[C@@H](C)CN([C@@H](C)CO)C(=O)c2cc(NC(=O)CCC(F)(F)F)ccc2O1,inactive: 1.02

row,SMILES,relative growth
1,C[C@H]1CN([C@@H](C)CO)C(=O)c2cc(NC(=O)Nc3cccc4ccccc34)ccc2O[C@H]1CN(C)Cc1ccc(C(=O)Nc2ccccc2N)cc1,inactive: 1.02
2,C[C@@H]1CCCCO[C@H](CN(C)Cc2ccc3c(c2)OCO3)[C@@H](C)CN([C@H](C)CO)C(=O)c2cc(NC(=O)NC3CCCCC3)ccc2O1,inactive: 0.99
3,COc1cc2c(cc1OC)CN(C(=O)[C@H]1[C@@H]3C(=O)O[C@@H](c4ccccc4)[C@@H](c4ccccc4)N3[C@@H](c3ccccc3OCCO)[C@]13C(=O)Nc1ccc(C#CC4(O)CCCCCC4)cc13)CC2,inactive: 1.08
4,COc1ccc(S(=O)(=O)N(C)C[C@H]2Oc3ccc(NC(=O)Cc4ccccc4)cc3CC(=O)N([C@@H](C)CO)C[C@@H]2C)cc1,inactive: 1.04
5,C[C@@H]1CCCCO[C@H](CN(C)C(=O)Nc2cccc3ccccc23)[C@@H](C)CN([C@@H](C)CO)C(=O)c2cc(NS(=O)(=O)c3cn(C)cn3)ccc2O1,inactive: 1
6,CC(C)NC(=O)N(C)C[C@@H]1OCCCC[C@@H](C)Oc2ccc(NC(=O)CCCCCC(=O)Nc3ccccc3N)cc2C(=O)N([C@H](C)CO)C[C@@H]1C,inactive: 0.996
7,Cc1ccc(S(=O)(=O)Nc2ccc3c(c2)C(=O)N([C@@H](C)CO)C[C@@H](C)[C@@H](CN(C)CC2CCCCC2)OCCCC[C@H](C)O3)cc1,inactive: 0.965
8,C[C@@H]1CCCCO[C@H](CN(C)C(=O)c2ccncc2)[C@@H](C)CN([C@H](C)CO)C(=O)c2cc(NC(=O)C3CCCCC3)ccc2O1,inactive: 0.998
9,Cc1ccc(OC(=O)N(C)C[C@H]2OCc3ccccc3-c3ccccc3C(=O)N([C@H](C)CO)C[C@@H]2C)cc1,inactive: 0.98
10,Nc1ncnc2c1ncn2[C@@H]1C=C[C@H](CO)O1,inactive: 0.995
11,C[C@@H]1CN([C@H](C)CO)S(=O)(=O)c2ccc(-c3cccnc3)cc2O[C@@H]1CN(C)C(=O)NC1CCCCC1,inactive: 1.01
12,O=C(O)CCCCC(=O)O,inactive: 0.967
13,C[C@@H]1CN([C@H](C)CO)C(=O)c2cccc(NC(=O)c3ccncc3)c2O[C@H]1CN(C)Cc1ccncc1,inactive: 0.98
14,C[C@@H]1CCCCO[C@H](CN(C)S(=O)(=O)c2ccccc2)[C@@H](C)CN([C@H](C)CO)C(=O)c2cc(NS(C)(=O)=O)ccc2O1,inactive: 0.984
15,COc1ccc(NC(=O)Nc2cccc3c2O[C@@H](CN(C)C(=O)Nc2cccc4ccccc24)[C@H](C)CN([C@H](C)CO)C3=O)cc1,inactive: 1.01
16,C[C@@H]1CN([C@@H](C)CO)C(=O)c2c(c3ccccc3n2C)-c2ccccc2CO[C@@H]1CN(C)Cc1ccc(F)cc1,inactive: 1.01
17,CC(C)C#Cc1cnc2c(c1)C(=O)N([C@@H](C)CO)C[C@@H](C)[C@H](CN(C)S(=O)(=O)c1cn(C)cn1)O2,inactive: 0.998
18,C[C@H](CO)N1C[C@H](C)[C@H](CN(C)CC2CCCCC2)OCCCC[C@H](C)Oc2ccc(NC(=O)NC3CCCCC3)cc2C1=O,inactive: 0.947
19,CCc1c(O)nc2ccccn2c1=O,inactive: 0.98

# From the supplement of paper PMC9446081
